Data: PubChem BioAssay AID1347073 (National Center for Advancing Translational Sciences (NCATS), 2019)
Hit rate of the full screen: of about 45,000 compounds, about 200 (0.44%) were called active. Roughly 7% stayed inconclusive and do not appear here. Calls come from the whole dose curve; as a rule, active = well fitted activation curve with a large enough effect; inconclusive = small, poorly fitted or top-dose-only effect; inactive = no such curve, though single readings can be large or run the other way. The list shows a part of the results.

Test: qHTS of TDP-43 Inhibitors: NCGC Sytravon Library Screen; note: 0% is about no effect; nearly all actives have a fitted effect of over 55% in size
Conditions: yeast TDP-43 toxicity rescue, BacTiter-Glo growth, 24 h; series mostly up to 46.1 µM; growth rescue (activation): at the top concentration
Procedure, shortened: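 TDP-43-expressing yeast, pregrown in raffinose, seeded at OD600 0.02 in galactose medium with compound for 24 hr at 30 deg C. Growth read by BacTiter-Glo luminescence, so rescue of toxicity appears as activation.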

| Structure (SMILES) | growth rescue (activation) |
| --- | --- |
| CCCCn1c(-c2ccc(Br)cc2F)nc2c1c(=O)[nH]c(=O)n2CC(C)C | inactive: 26.3% |
| CC(C)CNc1nnnc2c1sc1nc(N3CCOCC3)c3c(c12)CCCC3 | inactive: 16% |
| Cc1ccc(S(=O)(=O)NC(=O)NC(C)c2ccc(F)cc2)cc1 (stereo not given) | inactive: 0.327% |
| Cc1n[nH]c(C)c1CCCCOc1ccccc1F | inactive: 16.5% |
| OC(c1ccc(OCc2ccccc2)cc1)c1nnc(-c2ccccc2)o1 (stereo not given) | inactive: 12.8% |
| O=C(CSc1nc2ccccc2c(=O)[nH]1)NCc1ccc(Cl)cc1 | inactive: 13.1% |
| COc1ccc(N(C)S(=O)(=O)c2c(C)noc2C)c(OC)c1 | inactive: -9.29% |
| COc1ccc(C2=NN(C(=O)c3ccccc3)C(c3ccccc3)C2)c(O)c1 (stereo not given) | inactive: -1.04% |
| Cn1cc(C(=O)NCN2CCCCC2)c2ccccc21 | inactive: 7.28% |
| CCCC1=[N+](CC(C)=O)CCn2c(C)ccc21 | inactive: -12.8% |
| O=C(COC(=O)c1ccccc1O)Nc1cccc(S(=O)(=O)NC2=NCCCCC2)c1 | inactive: 5.51% |
| COc1cc(CNCCCN2CCOCC2)c(Br)cc1OCC(=O)Nc1ccccc1C | inactive: -2.51% |
| Fc1ccccc1COc1ccc(Br)cc1CNCc1cccnc1 | inactive: -1.67% |
| COc1ccc(NCC(=O)N/N=C(\C)c2cc3ccccc3o2)cc1 | inactive: 18.1% |
| O=C(COc1ccccc1Cl)Nc1ccc(C(=O)c2ccc(C(=O)O)cc2)cc1 | inactive: 11.3% |
| COc1ccc(CCN(C(=O)c2ccco2)C(C(=O)NC2CCCC2)c2ccncc2)cc1OC (stereo not given) | inactive: -1.92% |
| CCc1nc(=O)c(-c2ccccc2)c(C)n1-c1ccccc1 | inactive: -7.94% |
| O=C(O)c1ccc(-n2nnnc2SCc2cccc(Br)c2)cc1 | inactive: 3.24% |
| CCc1ccc(/C=N/NC(=O)c2cc(-c3cccc([N+](=O)[O-])c3)n[nH]2)cc1 | inactive: 0.729% |
| O=C(Nc1ccccc1C(F)(F)F)c1cc(-c2ccco2)on1 | inactive: -9.5% |
| CCn1cc(C(=O)N2CCCC(C(=O)c3ccc4ccccc4c3)C2)cn1 (stereo not given) | inactive: 27.8% |
| Cc1ccccc1N(C(=O)c1snc(C(N)=O)c1N)C(C)C(=O)NC1CCCCC1 (stereo not given) | inactive: 7.13% |

| Structure (SMILES) | growth rescue (activation) |
| --- | --- |
| CCC(C)(C#CCN1CCCCC1)OCCC#N (stereo not given) | inactive: 8.56% |
| Cc1nc2ccc(S(=O)(=O)N3CCCCC3)cc2s1 | inactive: 1.14% |
| Oc1ccc2ccccc2c1CN1CCOCC1 | inactive: 20.2% |
| Cc1cc(C)cc(N(CCC(=O)O)S(=O)(=O)c2ccc(Cl)cc2)c1 | inactive: 7.05% |
| Cc1ccc2[nH]c3c(=O)[nH]ncc3c2c1 | inactive: -3.32% |
| CCOc1ccc(-n2c(SCC(=O)NCc3ccco3)nc3ccccc3c2=O)cc1 | inactive: 9.04% |
| NS(=O)(=O)c1cccc(NC(=O)CSc2nnnn2-c2ccccc2)c1 | inactive: -4% |
| O=C(Nc1cccc(S(=O)(=O)N2CCCC2)c1)c1cc(-c2ccccn2)nc2ccccc12 | inactive: -5.6% |
| COc1cccc(NC(=O)N2C3CCCC2CC(NC(=O)C2CC2)C3)c1 (stereo not given) | inactive: -20.9% |
| O=C(O)/C=C/c1ccc(S(=O)(=O)NCc2ccco2)cc1 | inactive: 9.51% |
| CCOc1ccc(C(=O)Nc2nc(C)c(C(=O)OC)s2)cc1 | inactive: 10% |
| Cc1ccc(S(=O)(=O)CC(=O)Nc2nnc(C(C)C)s2)cc1 | inactive: 1.04% |
| CC(C)=C(NC(=O)c1ccccc1)C(=O)NCc1ccccc1 | inactive: 0.936% |
| NC(c1csc(Nc2ccc(C(=O)NCCCO)cn2)n1)c1ccccc1Cl (stereo not given) | inactive: -3.17% |
| O=C(N/N=C/c1cccnc1)c1cccs1 | inactive: -18.1% |
| O=C(NCC1CC1)c1ccc(-n2ccnc2)c2ccoc12 | inactive: 6.58% |
| CC(=O)NC(Cc1cccc(F)c1)C(=O)NC1CCN(C(=O)c2ccc(C)cc2)CC1 (stereo not given) | inactive: 9.7% |
| CC(C)CCN1C(=O)c2ccccc2CC1(C)C(=O)NC1CCC(C)CC1 (stereo not given) | inactive: 1.26% |
| CCn1c(=O)c([N+](=O)[O-])c(NCCc2ccc(OC)c(OC)c2)c2ccccc21 | inactive: 1.59% |
| O=C1/C(=C\c2ccccc2Cl)SC(=S)N1CCC(=O)N1CCCc2ccccc21 | inactive: 28.3% |
| CCN(CC)C(=O)CSC1=C(C#N)C(c2ccco2)C(C(=O)OCCOC)=C(C)N1 (stereo not given) | inactive: 19.1% |
| CCNc1nc(NC(C)C)nc(N(n2cnnc2)S(=O)(=O)c2ccc(C)cc2)n1 | inactive: 7.02% |

| Structure (SMILES) | growth rescue (activation) |
| --- | --- |
| Cc1cc2cc(CN(Cc3ccco3)C(=O)NCc3ccccc3)c(=O)[nH]c2cc1C | inactive: 24.6% |
| Cc1ccc(NC(=O)CN2CCN(C(=O)c3ccco3)CC2)cc1 | inactive: -9.25% |
| O=C(CNS(=O)(=O)c1ccc(Br)s1)NCc1ccccc1 | inactive: -11.5% |
| CC(C)C(NC(=O)/C=C/c1cccc([N+](=O)[O-])c1)C(C)C | inactive: 3.59% |
| COc1cccc(C(=O)Nc2nnc(Cc3ccc(OC)c(OC)c3)s2)c1 | inactive: 1.92% |
| CCC(C)(C)NC(=O)c1ccccc1Oc1ccccc1 | inactive: 1.35% |
| Cc1ccc(N(CC(=O)NCCSc2ccccn2)S(=O)(=O)c2ccc(F)cc2)cc1 | inactive: 5.41% |
| COc1cc(/C=C2\CC/C(=C\c3cc(OC)c(O)c(OC)c3)C2=O)cc(OC)c1O | inactive: -22.2% |
| Cc1ccccc1NC(=S)N(CCCN1CCOCC1)Cc1cccnc1 | inactive: -6.18% |
| Cc1cccc(NCC(=O)N/N=C\c2cccn2C)c1 | inactive: 1.02% |
| O=C1/C(=C\c2ccc(O)c(O)c2)C(c2ccccc2)=NN1c1ccccc1 | inactive: 7.55% |
| O=[N+]([O-])c1ccccc1S(=O)(=O)N(CC(O)CN1CCCCC1)c1ccccc1 (stereo not given) | inactive: -7.91% |
| CC(=O)N(CCCCl)C(C#N)c1ccccc1 (stereo not given) | inactive: 15.6% |
| Cc1cc(C)n(-c2nc(SCC(=O)O)c3c4c(sc3n2)COC(C)(C)C4)n1 | inactive: 9.26% |
| C=CCn1cc(F)c(=O)n(CC=C)c1=O | inactive: 7.98% |
| COCCNC(=O)C1(C)CCCN(Cc2ccc(OCc3ccccc3)cc2)C1 (stereo not given) | inactive: 11.8% |
| CCS(=O)(=O)c1nn2c(N)c(/C=C3/C=CC(=O)C(OC)=C3)c(=O)nc2s1 | inactive: 11.8% |
| CCOC(=O)N1CCN(C(=O)C2CCC(=O)N(Cc3cccc(C(F)(F)F)c3)C2)CC1 (stereo not given) | inactive: 11.2% |
| Cc1cc2c(cc1C)C(c1cccc([N+](=O)[O-])c1)CC(=O)N2 (stereo not given) | inactive: 27.7% |
| Cc1ccccc1C(=O)NC1CCN(CC(=O)Nc2ccc(Br)cc2)CC1 | inactive: -0.646% |
| CC(=O)c1ccc(NC(=O)c2ccc3c(c2)C(=O)N(c2ccccn2)C3=O)cc1 | inactive: -4.84% |
| O=C(Nc1ccn(Cc2ccc(F)cc2)n1)c1ccncc1 | inactive: 21.9% |

| Structure (SMILES) | growth rescue (activation) |
| --- | --- |
| Cc1cc(C)n2nc(C(=O)OCC(=O)N(CC(C)C)C3CCS(=O)(=O)C3)nc2n1 (stereo not given) | inactive: 1.59% |
| CC1CC(C)CN(C(=O)CCNC(=O)Cn2ccc3ccccc3c2=O)C1 (stereo not given) | inactive: 8.26% |
| CC1CCN(S(=O)(=O)c2ccc(C(=O)N3CCN(c4ccccc4F)CC3)cc2)CC1 | inactive: -1.85% |
| COc1ccc(Cc2noc(CN(C)C3CC(C)(C)NC(C)(C)C3)n2)cc1OC | inactive: 10.3% |
| CCCCOP(=O)(OCCCC)C(O)c1ccc(N(C)C)cc1 (stereo not given) | inactive: -7.23% |
| O=C(NCCN1CCOCC1)c1cc(Sc2cccc(Cl)c2)nc2ccccc12 | inactive: -9.52% |
| CNc1ccccc1C(C)(C)c1cc(-c2cccc(Br)c2)no1 | inactive: 4.16% |
| CCN(CC1COc2ccccc2O1)S(=O)(=O)c1ccc(C)cc1 (stereo not given) | inactive: 4.73% |
| COc1ccc(/C(C)=N/NC(=O)CNC(=O)c2cccnc2)cc1 | inactive: 10% |
| NC1=NC(=O)/C(=C/c2cn(Cc3ccccc3)c3ccccc23)S1 | inactive: -3.37% |
| CCOC(=O)c1nnn(-c2nonc2N)c1CSc1nnc(N)s1 | inactive: 5.46% |
| COc1ccc(NC2CCCN(C(=O)COc3ccc(C)cc3)C2)cc1 (stereo not given) | inactive: 15% |
| CC1=Nc2cc(C(=O)NCCCOC(C)C)ccc2Sc2ccccc21 | inactive: 12.7% |
| Cc1ccc(-c2noc(CCC(=O)NC3CC3)n2)cc1 | inactive: 20.9% |
| Cc1ccc(S(=O)(=O)/N=C2/NC(=O)/C(=C/c3ccccn3)S2)cc1 | inactive: 28.3% |
| CNC(=S)NC1CC2CCCC(C1)N2Cc1ccc(C)cc1 (stereo not given) | inactive: 1.54% |
| CCN1CCN(c2cc3c(nn2)Oc2ccccc2N3C)CC1 | inactive: 3.93% |
| COc1cc(NC(=O)COc2ccc(-n3cnnn3)cc2)cc(OC)c1OC | inactive: -5.65% |
| COc1ccc(-c2noc(CCCC(=O)Nc3cccnc3)n2)cc1OC | inactive: 5.77% |
| O=C(Nc1nc(OCC(F)(F)F)cnc1/C=C\c1ccccc1)c1ccccc1 | inactive: -8.95% |
| Cc1ccc(NC(=S)N2CCC(NC(=O)c3ccccc3)CC2)cc1 | inactive: -2.82% |
| CN(C)Cc1c(O)ccc2c(-c3ccccc3)cc(=O)oc12 | inactive: 10.5% |

| Structure (SMILES) | growth rescue (activation) |
| --- | --- |
| COCCOC(=O)c1c(NC(=O)CNCc2ccco2)sc(C(N)=O)c1C | inactive: 15.2% |
| O=C(COC(=O)/C=C/c1cccc(Cl)c1)Nc1ccc(N2CCOCC2)cc1 | inactive: 17% |
| CC(C)CNC(=O)CCc1c[nH]c2ccccc12 | inactive: -16.4% |
| CC(=O)c1sc(NC(=O)COc2ccc([N+](=O)[O-])cc2)nc1C | inactive: -0.691% |
| COc1ccc(/C=N/NC(=O)c2ccc3c(c2)NC(=O)C(C)(C)O3)cc1OC | inactive: 16.5% |
| CCSc1nsc(NC(=O)Nc2cccc(F)c2)n1 | inactive: -2.5% |
| CC(C(=O)Nc1ccccc1)N(C)CCOc1ccc(Br)cc1 (stereo not given) | inactive: 26.7% |
| CN(C)c1cccc(C(=O)NNC(=O)CN2C(=O)C3CC=CCC3C2=O)c1 (stereo not given) | inactive: 10.8% |
| Nc1nc(SCC(=O)NNc2c(Cl)cc(Cl)cc2Cl)n[nH]1 | inactive: -8.92% |
| O=C(O)c1ccc(N2CCCS2(=O)=O)cc1 | inactive: 0.673% |
| CCOc1ccccc1Nc1cc(C)c2cccc(C)c2n1 | inactive: 14.8% |
| COc1ccc(C(=O)OCC(=O)N2C(C)CCCC2C)cc1[N+](=O)[O-] (stereo not given) | inactive: 13.6% |
| O=C(CCSCCc1ccccn1)Nc1ccccn1 | inactive: -3.54% |
| CS(=O)(=O)Nc1ccccc1C(=O)OCC(=O)NCc1cccs1 | inactive: -1.64% |
| Cc1ccc(-n2c(-c3ccncc3)n[nH]c2=S)cc1 | inactive: 5.09% |
| CC1CCC(NC(=O)CCCCn2c(=O)[nH]c3ccsc3c2=O)CC1 (stereo not given) | inactive: -15.2% |
| COc1ccc(C(=O)O)cc1S(=O)(=O)N1CCN(Cc2ccc3c(c2)OCO3)CC1 | inactive: -13% |
| CCOC(=O)C1=C(C)NC(C)=C(C(=O)OCC)C1C(=O)OCC(=O)N1CCCCC1CC (stereo not given) | inactive: 4.35% |
| Cc1cccc(NC(=O)NC2(C)CCS(=O)(=O)C2)c1 (stereo not given) | inactive: 18.3% |
| O=C(CCS(=O)(=O)c1ccccc1)Nc1ccccn1 | inactive: 10.7% |
| Cc1ccc(NC(=O)CN(C)Cc2c(O)ccc3ccccc23)cc1 | inactive: 21.6% |
| COc1ccc(CCNC(=S)NC2CCN(Cc3ccccc3)CC2)cc1 | inactive: -12.3% |
